This note sets out measurements from publication PMC12136788.

To fix the notation:
B1: chr1:163117127:163117128:-_ENSG00000143248_ENST00000313961|hu_mus|hu_hu_hu_mus_False|88_88 (ssRNA)
RNA: GGGAGUUCUACAGUCCGACGAUCUGCUACAAAGGAUGUAACUCAACACUCACAGGAACUUUUGGAAGCCUGACCAGAUGACUACUUGAUUAGCUCCUUAUAAAAUUCAGAGCGCACAAAGCGGGGCAGAGAAUCCUUCUCCAUCAACAGAGGAUUGAGCAUCA
B2: chr1:165619138:165619139:+_ENSG00000143198_ENST00000367886|hu_mus|FALSE|FALSE (ssRNA)
RNA: GGGAGUUCUACAGUCCGACGAUCCUUGUACUUCUUGCGGGCUUUGCCCACGUUGAUGGCUAGGUGGAGCACCAUCACAAAGCUGGCAGCACCAGUGAGAAGCACAAAUCCAUACUCCUUAGAGAGGACAGCCAUCUUGGCUCUCAACAGAGGAUUGAGCAUCA
B3: 57919867_57919987_1532_CDS_ENSG00000166987_ENST00000355673|human|control|control (ssRNA)
RNA: GGGAGUUCUACAGUCCGACGAUCCACAGAAGGGAGAAUUGGUUGGGAUGGCUCCGGGAGAGAAAAGGGUUGGGGGACAGGAGCAGGGGCCCGAGGACGGCUCCGUCUAGGGGUUUGAGGGCCUCUCCCUUCUAGCAAUCGAAACAACAGAGGAUUGAGCAUCA
B4: chr16:94690093:94690094:+_ENSMUSG00000040785_ENSMUST00000117648|mus_hu|mus_mus_mus_hu_True|28_108 (ssRNA)
RNA: GGGAGUUCUACAGUCCGACGAUCGGGGACUCCUGUGGGACACACAGCCUCGAUUCCAGGGGGAAAAAGUCUUAGUCGAUACUAAUUAAAAAGUGUUAAUGAUUUUUAUUACCAAAAUUACAUCUAUAAAAGAUGAAAAGCAAACAACAGAGGAUUGAGCAUCA
B5: chr12:48362563:48362564:+_ENSG00000134291_ENST00000256686|hu_hu|hu_hu_hu_mus_False|1_88 (ssRNA)
RNA: GGGAGUUCUACAGUCCGACGAUCUCCGUCAAGCCCUUCGAUAGACCCAUAGACUCUAAACUGUAAUCACUUUGUAUGGGGAAGGAAAAGAAACGCCAAAAACUUUCCAAAAAGCGGGGGUGGGGUGAGGCGGGAGGUUGGGAACAACAGAGGAUUGAGCAUCA
B6: chr13:60863204:60863205:+_ENSMUSG00000021559_ENSMUST00000077453|mus_mus|motif|central (ssRNA)
RNA: GGGAGUUCUACAGUCCGACGAUCCAGUCCAUAAAGACCCUACCCAAGCCAAGGCUGCCCUCACCGGGACACCACUGAGCGGAUGGAAUUGUAGGACGUGCCACUGUUACAGCUUGAGGCAUAGGCCUCCUGGCCAUUGCCAUCCAACAGAGGAUUGAGCAUCA
B7: chr16:94651144:94651145:+_ENSMUSG00000040785_ENSMUST00000117648|mus_hu|mus_mus_mus_hu_True|68_98 (ssRNA)
RNA: GGGAGUUCUACAGUCCGACGAUCAUUUUCUUGAAUCAAGUGACCGAUAACAUAGUCCACUGCUUCAUGGACAAAAUUUCUGCUAGAAAAACAGGUUGUAUAGUCUUCUGUGCUCAAAACUUUCCAAGAAAGCAAUUCUUUGAGCAACAGAGGAUUGAGCAUCA
B8: 34475664_34475784_6227_CDS_ENSMUSG00000005871_ENSMUST00000115781|mouse|control|control (ssRNA)
RNA: GGGAGUUCUACAGUCCGACGAUCGAGAGAGCUGUUUCUUGAGAAACAGACAGGGGUGUCUUCGACGUGGAAGGACUUGGGAGCAUACCCGGAUGCCUGAGGCUUACUGGGCUCUCCUUGUGAGUUGGCAGGUUCAGCUUCUUUCAACAGAGGAUUGAGCAUCA
B9: 138451967_138452087_1602_CDS_ENSG00000189184_ENST00000344876|human|control|control (ssRNA)
RNA: GGGAGUUCUACAGUCCGACGAUCUCUAUCCAGUGUGGCAUUAGUUAAGAUUAAAUAAUUGUUUUCAUAUGUCUUCUGAAGUUUAAAGUGACCAUGUCCAUGAAGCUUACAAACUAUUUCUCCAUUCAGCCCAGAAUCCUUGUCCAACAGAGGAUUGAGCAUCA
B10: 55523615_55527050_5340_CDS_ENSG00000115355_ENST00000336838|human|control|control (ssRNA)
RNA: GGGAGUUCUACAGUCCGACGAUCACUGCUGUGGCUUUGUGGCCUGCUUUGGUUAUUAACUGCACCUGCUUUGACUUCAUGUAGUGAAGCAUUAUUAUUGCUAUUGCUAGUGGAUGUUCUGCCACUAUCAAGGCUGGCUGGUCUCAACAGAGGAUUGAGCAUCA
B11: chr11:115359251:115359252:-_ENSMUSG00000020737_ENSMUST00000021083|mus_mus|motif|central (ssRNA)
RNA: GGGAGUUCUACAGUCCGACGAUCACACAUCAGGAACCAGAUCAUCUGUUCUUAGAAACAGUCUACUACUCCAGUCGGCGGCGGGAAAACACUCAUGCCAUGGCGCACAGACCCAGGAGUCAGACAGACAGAAGGAAAGGAAGACAACAGAGGAUUGAGCAUCA
B12: chrX:71549400:71549401:+_ENSMUSG00000019087_ENSMUST00000019231|mus_hu|mus_mus_mus_hu_False|48_58 (ssRNA)
RNA: GGGAGUUCUACAGUCCGACGAUCGCAGUAGGAAGAGGGAAGCUCUUCAGUCCAGUGCGCUGCAGGGUGGGAAAGCACAACCUAGACACCAAUACUCCCCUCAACCCCCCCACUGGCACAGGGUCACACAAUCUGGGUCAAAGACAACAGAGGAUUGAGCAUCA
B13: chr8:117878989:117878990:-_ENSG00000164754_ENST00000297338|hu_mus|FALSE|FALSE (ssRNA)
RNA: GGGAGUUCUACAGUCCGACGAUCCCAGAGGCCCUCGUUUACUGAGGACAAAAUGUGCGUAGAACAUUUUUCUUAUUUGCUAUGAAAUAAGAAGAAACCUGGAUCUCGGCGGGGAGCCGGGAGGGGUGGGUGGCCCGGGGAGGGCAACAGAGGAUUGAGCAUCA
B14: chr3:20008827:20008828:+_ENSMUSG00000002428_ENSMUST00000002502|mus_hu|FALSE|FALSE (ssRNA)
RNA: GGGAGUUCUACAGUCCGACGAUCAGAGGCUUUAAGUGGUAUUUCUAUUAAAGACAGGAAUGUUGUAAACUGAGAAACAACCAAACUUUUUAUGUUGGGAUUCUUCUUUCUUAAGUCAGUCAAUGCGUGCAUUAGCGCAUUAAUCAACAGAGGAUUGAGCAUCA
B15: chr4:115894766:115894767:+_ENSMUSG00000028698_ENSMUST00000030464|mus_hu|mus_mus_mus_hu_True|1_1 (ssRNA)
RNA: GGGAGUUCUACAGUCCGACGAUCUUCCACACGGAAAUGUACUUCGGGUUUUCCAACGGCCAGUACCAGUCCGGCCAAACUACCCGAACAGGGUCCUCCCCCUCUCUCCUACAGAACACAACAAAAUGCCCCCGAACCCCGAACCAACAGAGGAUUGAGCAUCA
B16: chr14:62203736:62203737:+_ENSG00000100644_ENST00000337138|hu_hu|FALSE|FALSE (ssRNA)
RNA: GGGAGUUCUACAGUCCGACGAUCUCCAGCGGCUGGGGCCAGCAAAGUUAAAGCAUCAGGUUCCUUCUUAAGUUUGUCAAAGAGGCUACUUGUAUCUUCUGAUUCAACUUUGGUGAAUAGCUGAGUCAUUUUCAUAUCUGAAGACAACAGAGGAUUGAGCAUCA
B17: chr2:9728443:9728444:-_ENSG00000134308_ENST00000238081|hu_hu|motif|central (ssRNA)
RNA: GGGAGUUCUACAGUCCGACGAUCUUGCAUCUCUUUCUUGCUUAUAUCAAAUGCCUCUUGGUAAGCUCCUUGGGAAUUAUCGGUCGUUUGUUUUCGAUCAUCACCACACGCAACUUCAGCAAGGUACCGGAAGUAAUCACCCUUCAACAGAGGAUUGAGCAUCA
B18: 49752748_49760177_1554_CDS_ENSG00000102531_ENST00000398316|human|control|control (ssRNA)
RNA: GGGAGUUCUACAGUCCGACGAUCGCCUGGUUUAUCAGGGCAAGUAGUAAAUUCUACUACUUCACUUGGAUUACUUUUACCUUCUGAGUUGUAAGCAAUAACCUUAAAUUUAUACUUAGUACUACGUCUGAGAUUUUUCACUGUCAACAGAGGAUUGAGCAUCA
B19: chr7:65705844:65705845:+_ENSG00000169902_ENST00000304842|hu_mus|hu_hu_hu_mus_False|58_108 (ssRNA)
RNA: GGGAGUUCUACAGUCCGACGAUCAAAAGGAUCUUUAUUACAUAAAUAAGGUGCCGGCUCCCCAUGUUUAACAAUGAUUUCUAGUAAGAAGGCUUGCAUGGCAGAAUCUAGCACUUCAUCUGUGACACCCGCCUCAUCCAAGCGCAACAGAGGAUUGAGCAUCA
B20: 48269489_48269609_6319_3pUTR_ENSMUSG00000038143_ENSMUST00000079195|mouse|control|control (ssRNA)
RNA: GGGAGUUCUACAGUCCGACGAUCACGUCCUCUCCUGUUCACAGGGCACUCGGUUCUUCCAAUGGCUACGUUCAGAGGGUCAGAGACUAAUGUAUUGUUUUAAUGGUCCUAUUAUUUAUGACUUGAGUAUGCCAAAAGUUUCAGCAACAGAGGAUUGAGCAUCA
B21: 45577590_45582230_658_3pUTR_ENSMUSG00000025217_ENSMUST00000065601|mouse|control|control (ssRNA)
RNA: GGGAGUUCUACAGUCCGACGAUCGUGACUUGGCGUCCAAGUAUGACAGAAUGUUCUCAGCGAUGUGGUCCAGACCCCGUGCUGGCAGUGCAGUUAUGAAAUCCCUCUGCAGCAUAGGUUUUAGGUAGGAGUUGAUGUGCCCAUCAACAGAGGAUUGAGCAUCA
B22: chr7:56045873:56045874:+_ENSG00000146729_ENST00000322090|hu_mus|FALSE|FALSE (ssRNA)
RNA: GGGAGUUCUACAGUCCGACGAUCCUUUUUGGCUAGGAGGUUGGAGUGGGCAUCUUUCCUUGGAUCGACCUUUCUGACAAACAAGGACUUUAGCCAGCUGUCUUCCCGAGCUCGGUGACUUGAGGAUGUCACUGUCCGGAGCCCCAACAGAGGAUUGAGCAUCA

Some of the results follow.

The target of the experiment is T1, UNK ZnF1-3 (human, UniProt Q9C0B0 31-174).
T1 sequence: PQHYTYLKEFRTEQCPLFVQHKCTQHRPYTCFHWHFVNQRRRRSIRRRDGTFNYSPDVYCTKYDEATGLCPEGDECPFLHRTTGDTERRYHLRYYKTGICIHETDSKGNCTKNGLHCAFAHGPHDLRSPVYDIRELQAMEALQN
In words: nsRBNS (natural sequence RNA bind-n-seq); RBNS binding buffer (assumed for nsRBNS): 25 mM Tris pH 7.5, 150 mM KCl, 3 mM MgCl2, 0.01% Triton X-100, 500 ug/ml BSA, 20 U/ml SUPERase-In, 4 C; UNK is unkempt and MSI1 is Musashi-1; names of the RNAs are library labels; protein concentration not given here; high values mean tight binding.
In turn, B1 came in with a binding signal of 1.26 enrichment R.
As for B2, the figure is 0.99 enrichment R; as for B3, 1.73 enrichment R; as for B4, 2.19 enrichment R.
As for B5, the figure is 2.82 enrichment R; as for B6, 0.934 enrichment R.
For B7, the binding signal stood at 0.362 enrichment R.
Molecule B8 had a binding signal of 1.11 enrichment R.
As for B9, the figure is 1.98 enrichment R; as for B10, 0.429 enrichment R.
As for B11, the figure is 1.96 enrichment R.
As for B12, the figure is 1.47 enrichment R.
The molecule B13 registered a binding signal of 1.21 enrichment R.
As for B14, the figure is 0.332 enrichment R; as for B15, 1.05 enrichment R; as for B16, 1.16 enrichment R.
As for B17, the figure is 0.848 enrichment R.
As for B18, the figure is 0.457 enrichment R; as for B19, 0.958 enrichment R.
The molecule B20 came in with a binding signal of 1.08 enrichment R.
On to B21, for which the binding signal came to 0.915 enrichment R.
Turning to B22, the binding signal amounted to 0.908 enrichment R.
